Data as given in PubChem BioAssay AID624418 (National Center for Advancing Translational Sciences (NCATS), 2012).
The whole screen tested about 410,000 compounds, of which about 530 (0.13%) were called active. Inconclusive results, whose numbers are uncertain, are shown with a selection of clear calls. Calls follow the shape of the dose curve; as a rule, active = well fitted inhibition curve with a large enough effect; inconclusive = small, poorly fitted or top-dose-only effect, or another doubt; inactive = no such curve, though single readings can be large or run the other way. Where the call is inconclusive, the potency comes from a doubtful curve fit.

experiment: qHTS of GLP-1 Receptor Inverse Agonists: Cytotox Screen; details: HEK293 cAMP-luciferase reporter cells, luminescence, 24 h; activity change, negative = inhibition: at 38.3 µM (top of the series) unless noted
How it was run: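 A 23 nL compound transfer followed 12 hours of cell culture at 37 deg C; exposure then lasted 24 hr. Luciferase assay detection reagent was dispensed and plates read for luminescence after a 12 min room-temperature wait.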
% is scaled to controls: 0 for no effect and ±100 for the full control effect; potency is read from the fitted curve at half-maximal effect.

Row | Structure (SMILES) | Potency | activity change, negative = inhibition
1 | CCCCCCCCOC(=O)c1c(CSC(=N)N)n(C)c2cc(Br)c(OC(C)=O)cc12 | inconclusive: 28.2 µM [inhibitor, single point] | –
2 | Cc1ccc(-n2c(C)cc(/C=N/NC(N)=S)c2C)cc1 | inconclusive: 10 µM [inhibitor, partial curve, poor fit] | –
3 | CC(C)C[C@H]1C(=O)N2CCCC2[C@]2(O)O[C@](NC(=O)[C@@H]3C=C4c5cccc6[nH]cc(c56)CC4N(C)C3)(C(C)C)C(=O)N12 (stereo partly drawn) | inactive | –
4 | CNCCCOc1ccc(Cl)cc1C(C)(C)C | inconclusive: 28.2 µM [inhibitor, single point] | –
5 | Cc1cccc(OCC(=O)N2CCN(Cc3cccnc3)CC2)c1 | – | inactive: -1.63% [at 7.66 µM]
6 | COc1cccc(-c2nn(-c3ccc(C)cc3)cc2C(=O)N(C)CC(=O)Nc2cccc(F)c2)c1 | inconclusive: 10 µM [inhibitor, single point] | –
7 | COc1ccc(C(c2nnnn2-c2c(C)cccc2C)N2CCC3(CC2)C(=O)NCN3c2ccccc2)cc1 (stereo not drawn) | inconclusive: 10 µM [inhibitor, single point] | –
8 | COc1ccc(C2=NCC(=O)N(CC(=O)NCc3ccco3)c3sc4c(c32)CCCC4)cc1OC | inconclusive: 2.24 µM [inhibitor, full curve, poor fit] | –
9 | O=c1[nH]sc2cc(F)ccc12 | inconclusive: 12.6 µM [inhibitor, single point] | –
10 | CCN(CC)C(=O)[C@H]1CC(CC(=O)NC/C=C(\C)CCC=C(C)C)C(=O)N2CCc3c([nH]c4ccc(OC)cc34)[C@]12C (stereo partly drawn) | inconclusive: 11.2 µM [inhibitor, single point] | –
11 | N#Cc1cccc(NC(=O)COC(=O)c2ccccc2C(=O)c2ccc(Cl)c([N+](=O)[O-])c2)c1 | inconclusive: 28.2 µM [inhibitor, single point] | –
12 | CC1=Nc2cc(C(=O)NCCc3ccc(Cl)cc3)ccc2Sc2ccc(C)cc21 | inconclusive: 3.55 µM [inhibitor, full curve, poor fit] | –
13 | COC(=O)C1=C(C)N(Cc2ccccc2)C(=NCc2cccc(C(F)(F)F)c2)N[C@H]1c1cccc(F)c1 | active: 22.4 µM | –
14 | CCOC(=O)C(NS(=O)(=O)c1ccc(C)cc1)(C(F)(F)F)P(=O)(OCC(C)C)OCC(C)C (stereo not drawn) | inconclusive: 11.2 µM [inhibitor, single point] | –
15 | COc1ccc(-c2[nH]ncc2N=Nc2ccccc2)cc1 | inconclusive: 28.2 µM [inhibitor, single point] | –
16 | FC(F)Sc1ccc(NC(=S)NCc2ccccc2)cc1 | inconclusive: 28.2 µM [inhibitor, single point] | –
17 | COc1ccc(CNC(=O)Nc2nc(C(N)Cc3ccc(C(F)(F)F)cc3)cs2)cc1 (stereo not drawn) | inconclusive: 20 µM [inhibitor, single point] | –
18 | CCOC(=O)C(CC)(CC)C(=O)/C=C/c1cccc(Br)c1 | inconclusive: 22.4 µM [inhibitor, single point] | –
19 | Cc1[nH]c2ccccc2c1SCc1nnc(SCc2ccc(Cl)cc2)n1C | inconclusive: 12.6 µM [inhibitor, partial curve] | –
20 | CC(=O)C1C(N2CC2)CC2C3CCC4=CC(=O)CCC4(C)C3CCC21C (stereo not drawn) | inconclusive: 8.91 µM [inhibitor, partial curve, poor fit] | –

Row | Structure (SMILES) | Potency | activity change, negative = inhibition
21 | Oc1ccc(/C=N/NP(=S)(c2ccccc2)c2ccccc2)cc1 | inconclusive: 20 µM [inhibitor, single point] | –
22 | Cc1cc(-c2nnc3n2N=C(c2ccc(-c4ccccc4)cc2)CS3)n[nH]1 | inconclusive: 11.2 µM [inhibitor, single point] | –
23 | N#CC(C#N)=NNc1ccc(S(N)(=O)=O)cc1 | inconclusive: 10 µM [inhibitor, partial curve, poor fit] | –
24 | COC(=O)C1=C(C)N(Cc2ccccc2)C(=NCC(C)C)N[C@H]1c1cccc(F)c1 | inconclusive: 14.1 µM [inhibitor, single point] | –
25 | FC(F)(F)c1cnc(NNC(=S)Nc2ccccc2Cl)c(Cl)c1 | inconclusive: 7.08 µM [inhibitor, partial curve, poor fit] | –
26 | O=c1[nH]c(=O)n(CCc2ccc(F)cc2)c(O)c1C=NCCCn1ccnc1 | inactive | –
27 | COc1ccc(NC(=O)CN(c2ccc([N+](=O)[O-])cc2)S(=O)(=O)c2ccccc2)cc1 | inconclusive: 11.2 µM [inhibitor, single point] | –
28 | O=C(C1CCCO1)N1CCC2(CC1)OCCO2 (stereo not drawn) | inconclusive: 1 µM [inhibitor, full curve, poor fit] | –
29 | CCN1CCN(C2=C(NS(=O)(=O)c3ccccc3)C(=O)c3ccccc3C2=O)CC1 | inconclusive: 10 µM [inhibitor, partial curve, poor fit] | –
30 | CCCN(CCC)C(=O)CC(c1ccccc1)c1cc(Br)ccc1O (stereo not drawn) | inconclusive: 28.2 µM [inhibitor, single point] | –
31 | O=[N+]([O-])c1cc(Cl)c(O)c2ncccc12 | inconclusive: 11.2 µM [inhibitor, single point] | –
32 | CN1CC2=Cc3ccccc3OC23Oc2ccccc2C=C3C1 | inconclusive: 31.6 µM [inhibitor, partial curve, poor fit] | –
33 | CCCCN(CC)Cc1c(C)[nH]c2c(ccc3ccccc32)c1=O | inconclusive: 28.2 µM [inhibitor, single point] | –
34 | O=C(NNc1ccc(C(F)(F)F)cc1[N+](=O)[O-])c1ccc(NS(=O)(=O)c2ccc(F)cc2)cc1 | inconclusive: 28.2 µM [inhibitor, single point] | –
35 | C[n+]1c(-c2ccccc2)c2cc(N)ccc2c2ccc(N)cc21 | inconclusive: 10 µM [inhibitor, partial curve, poor fit] | –
36 | CC(=O)N1CCc2c(sc(NC(=O)C3CC3)c2-c2nc3ccccc3s2)C1 | inconclusive: 28.2 µM [inhibitor, single point] | –
37 | CCOc1cc(/C=C2/SC(=S)NC2=O)ccc1OC(=O)c1ccco1 | inconclusive: 11.2 µM [inhibitor, single point] | –
38 | NC(=S)NN=C1C2CC3CC(C2)CC1C3 | inconclusive: 11.2 µM [inhibitor, partial curve, poor fit] | –
39 | Cc1nc([N+](=O)[O-])c(Sc2nc3ccc([N+](=O)[O-])cc3[nH]2)n1Cc1ccccc1 | inconclusive: 28.2 µM [inhibitor, single point] | –
40 | O=C1Nc2ccccc2/C1=C/c1nc2ccccc2c(=O)n1-c1ccc(O)cc1 | inconclusive: 4.47 µM [inhibitor, partial curve] | –

Row | Structure (SMILES) | Potency | activity change, negative = inhibition
41 | CCCN(CCC)c1nc(NC2CCN(C(=O)OCC)CC2)nc(OC)n1 | inconclusive: 28.2 µM [inhibitor, single point] | –
42 | C[C@]12CC[C@H]3[C@@H](CCC4=CC(=O)CC[C@@]43C)[C@@H]1CC[C@@H]2O | inactive | –
43 | COC(=O)C1=C(c2ccc(-c3ccccc3)c(F)c2)C[C@@H]2CC[C@H]1N2C(=O)NC1CCCCC1 | inconclusive: 2.51 µM [inhibitor, partial curve, poor fit] | –
44 | COc1cc(C2C3=C(COC3=O)Oc3cc4c(cc32)OCO4)ccc1O (stereo not drawn) | inconclusive: 0.891 µM [inhibitor, full curve, poor fit] | –
45 | CN(CC(=O)Nc1cccc(F)c1)CC(=O)Nc1cccc(S(=O)(=O)N(C)c2ccccc2)c1 | inconclusive: 28.2 µM [inhibitor, single point] | –
46 | COc1ccc(-n2nnnc2C(c2cccs2)N2CCC(n3c(=O)[nH]c4ccccc43)CC2)cc1 (stereo not drawn) | inconclusive: 10 µM [inhibitor, partial curve, poor fit] | –
47 | CC(C)C[C@H]1CN=C(Nc2ccccc2)N1CC1CCC(C(C)(C)C)CC1 (stereo partly drawn) | inconclusive: 28.2 µM [inhibitor, single point] | –
48 | Nc1c(S(=O)(=O)c2cccs2)c2nc3ccccc3nc2n1/N=C/c1cccc(O)c1 | inconclusive: 22.4 µM [inhibitor, partial curve, poor fit] | –
49 | O=C(CCn1c(=O)oc2ccccc21)N1CCN(c2ccccc2Cl)CC1 | inconclusive: 11.2 µM [inhibitor, single point] | –
50 | CN(C)S(=O)(=O)c1cccc(-c2nn(-c3ccccc3)cc2/C=C2\SC(=S)NC2=O)c1 | inconclusive: 11.2 µM [inhibitor, partial curve] | –
51 | CCOP(=O)(OCC)C(Nc1cccc([N+](=O)[O-])c1)c1ccc(OC)cc1 (stereo not drawn) | inconclusive: 4.47 µM [inhibitor, full curve, poor fit] | –
52 | CCOC(=O)C1(c2ccccc2)CCN(CCC(=O)Nc2cccc(Br)c2)CC1 | inconclusive: 28.2 µM [inhibitor, single point] | –
53 | CCOc1cc(CNCCc2c[nH]c3ccccc23)cc(Cl)c1OC | inconclusive: 22.4 µM [inhibitor, single point] | –
54 | NC(c1csc(Nc2ccc(C(F)(F)F)cn2)n1)C1CCCCC1 (stereo not drawn) | inconclusive: 28.2 µM [inhibitor, single point] | –
55 | COc1ccc(C(=O)C(CN2CCOCC2)c2ccccc2)cc1 (stereo not drawn) | inconclusive: 10 µM [inhibitor, partial curve, poor fit] | –
56 | O=[N+]([O-])c1ccc(-c2ccccc2)c([As](=O)(O)O)c1 | inconclusive: 31.6 µM [inhibitor, single point] | –
57 | NC(=Nc1ccccc1)NN=Cc1c[nH]c2ccccc12 | inconclusive: 3.55 µM [inhibitor, partial curve, poor fit] | –
58 | Cc1c(C#N)c(NC(=O)CCl)n(Cc2ccc(F)cc2)c1C | inconclusive: 12.6 µM [inhibitor, partial curve, poor fit] | –
